Our source for the binding signal (normalized occupancy) values is article PMC4242493.

Some of the results follow. The list includes weakly bound sequences.

This assay deals with MaxL homodimer (UniProt P61244). In words: universal protein-binding microarray (PBM). The note with it: PBS-based mixture, 10 nM His-tagged protein dimer, 2% milk, 200 ng/uL BSA, 50 ng/uL salmon testes DNA, 0.02% TX-100; detection with Alexa 488 anti-His …; high values mean tight binding; most listed sequences are background and not binding sites; double strand, one strand shown.
UniProt P61244, sequence (P61244 whole entry): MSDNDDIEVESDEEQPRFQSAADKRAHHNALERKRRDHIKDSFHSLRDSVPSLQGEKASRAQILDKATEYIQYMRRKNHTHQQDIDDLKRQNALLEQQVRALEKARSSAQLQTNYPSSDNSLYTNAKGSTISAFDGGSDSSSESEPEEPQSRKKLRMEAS
For the sequence CATTATGC, the binding signal (normalized occupancy) came to 0.0836.
On to TCTACAGA, for which the binding signal (normalized occupancy) turned out to be 0.0715.
For AACCTCGG, the binding signal (normalized occupancy) was 0.0682.
For CATTCATA the value was 0.0838.
As for ATAGAACA, the figure is 0.0789; as for ATCCACAC, 0.083; as for CTGGACTC, 0.0689.
As for AATAGAGT, the figure is 0.0745.
Turning to AAGGATTC, the binding signal (normalized occupancy) was determined as 0.077.
For GGTACAGA the value was 0.0715.
For AATGTCTC the value was 0.0821; for AGTCCGGC, 0.0693; for ACGACAGT, 0.0734.
For ATACGCTA the value was 0.0776; for GAATCTTA, 0.0711.
In the case of TAGGACAA, the binding signal (normalized occupancy) was found to be 0.0754.
For ATCGGCGA the value was 0.0686; for CATTCTGG, 0.077.
For AAGCTAAT the value was 0.0749.
Regarding CGAAAAAC, the binding signal (normalized occupancy) came out at 0.0696.
As for ACCACAAT, the figure is 0.0804; as for GACATCCA, 0.0748; as for CATCCAAG, 0.075.
For ATGAAACC the value was 0.0781; for AAGCGAGG, 0.0741.
For the sequence TGGTAAAA, the binding signal (normalized occupancy) turned out to be 0.0733.
As for ACTTATTG, the figure is 0.0735; as for AGCCTCGG, 0.07; as for ACACCTCC, 0.0781.
Take AGCGCATC: the binding signal (normalized occupancy) worked out at 0.0737.
As for GTTGTGCA, the figure is 0.0754; as for GGCGTTAC, 0.0702; as for AAGAATCC, 0.0704.
For GGGGTATA the value was 0.0888.
As for CATGCTGC, the figure is 0.122; as for CCGTGGGA, 0.0775.
For the sequence AGAACGAC, the binding signal (normalized occupancy) came out at 0.0774.
As for ATGCCTGG, the figure is 0.0781; as for AGAAGCTA, 0.0715.
As for AGATATGA, the figure is 0.0807; as for GTGACAAA, 0.0805.
As for CCACAATA, the figure is 0.0775.
For the sequence AAAGCAAC, the binding signal (normalized occupancy) amounted to 0.0699.
For TACACGAA the value was 0.0774; for CCAAAAGC, 0.0644.
As for CTCGGTAC, the figure is 0.0736; as for ACGGCAGA, 0.0744; as for ATCAAGAA, 0.0807.
In the case of ATCACGAG, the binding signal (normalized occupancy) was found to be 0.0932.
In the case of ACGATTCG, the binding signal (normalized occupancy) came out at 0.0779.
For CTGGTTCA the value was 0.0716.
Take GTTTTTTA: the binding signal (normalized occupancy) came out at 0.07.
For CGGTAGTC the value was 0.0674; for AAAATCTT, 0.0679; for GGAGCCTA, 0.069.
For CTGAGAAA the value was 0.0731; for AGGGCCGC, 0.0729.
As for AGGCTTCA, the binding signal (normalized occupancy) was determined as 0.069.
For ATGTACAC the value was 0.0906; for CTCCACTA, 0.0729; for ATAAGGAA, 0.076.
For CGGACTTC the value was 0.071; for CCAGTAAC, 0.0745.
As for AGTGGCCA, the figure is 0.0734; as for AAATACAG, 0.0766.
For the sequence ACCAAATC, the binding signal (normalized occupancy) is 0.0779.
As to ACTGCAGA, the binding signal (normalized occupancy) worked out at 0.0732.
Consider AATCCTCT, for which the binding signal (normalized occupancy) was determined as 0.0734.
As for CTGTGTTC, the binding signal (normalized occupancy) is 0.0742.
For CGCCTACG, the binding signal (normalized occupancy) stood at 0.0728.
As for CAGCATCA, the figure is 0.0768.
For CAACTCCC the value was 0.0763; for ATAATTAC, 0.0794.
Turning to AAATGATG, the binding signal (normalized occupancy) is 0.0795.
For CAGCCACG the value was 0.0806; for GCTGCAAA, 0.0687.
As for ACGAGAAA, the figure is 0.0699.
As for AGCATTGA, the figure is 0.0777; as for AGTTGTGA, 0.0763; as for ACAGCGCC, 0.0698.
Turning to CAGGCCCC, the binding signal (normalized occupancy) is 0.074.
As for AAAAGACT, the figure is 0.072; as for CTGACAAG, 0.075; as for GGGCAACC, 0.0687.
For GCGGGGCC the value was 0.0693.
As for GCTGGGCC, the figure is 0.0659.
In the case of ACACACAC, the binding signal (normalized occupancy) turned out to be 0.0915.
With TACCGCAA, the binding signal (normalized occupancy) is 0.0787.
As for CGTACATC, the figure is 0.0836; as for ATCGAGGC, 0.0755.
For ACTAGGCC the value was 0.0722.
For ACACTGCT the value was 0.0793; for ATCCCAAT, 0.0808.
CGGCTCTC: the binding signal (normalized occupancy) was 0.0682.
As for GAGGAGGC, the figure is 0.0782; as for ACTCTTCG, 0.0747.
As for CGATCATA, the figure is 0.0845.
In the case of ACCAGAAC, the binding signal (normalized occupancy) was determined as 0.0763.
As for GCCGACAA, the figure is 0.07; as for AAGACTCA, 0.074.
AGGTGATA: the binding signal (normalized occupancy) amounted to 0.0839.
For CCAGTTAC the value was 0.0773; for TATAAGGA, 0.0807.
As for TTGGGAAA, the figure is 0.0769; as for CAATTACC, 0.0784.
As for GTGTATGA, the figure is 0.0901.
Take CGTGGTAG: the binding signal (normalized occupancy) came to 0.089.
For CTGGGGCA, the binding signal (normalized occupancy) stood at 0.0708.
For AACCAGGA the value was 0.0727; for ATAGGAAG, 0.0755; for ATGCCCGG, 0.0744.
Take GCGTGGCA: the binding signal (normalized occupancy) was determined as 0.121.
As for ATGTCAAA, the figure is 0.0788; as for CGTTCTAG, 0.0783.
As for AGGACCGC, the figure is 0.0725; as for CCGAACGC, 0.0695.
For AGCGACGA the value was 0.0714; for ACACCAGT, 0.0764; for CAGTTGGG, 0.0768.
As to GTTTGTGA, the binding signal (normalized occupancy) came out at 0.0718.
For CAGTGCCC the value was 0.0678.
CGTTCGGC: the binding signal (normalized occupancy) is 0.0711.
For ACGCTGCC the value was 0.0776; for AACGACCA, 0.0725.
As for GACTCATA, the figure is 0.0763.
Consider AGTATAGG, for which the binding signal (normalized occupancy) was determined as 0.0786.
For AACGCCGC the value was 0.0718; for GGTCTTTA, 0.0763.
As for CACGCTTC, the figure is 0.098; as for GCGAATGA, 0.0779; as for GATTTCGC, 0.069.
As for AGCAGGTA, the figure is 0.0762.
Turning to AAGTGAGC, the binding signal (normalized occupancy) came out at 0.069.
For GGCGTCAA the value was 0.0717; for AAATTTCA, 0.0744.
For AGGATAAG the value was 0.0725; for GTTTACCA, 0.0757; for ACGCCGTG, 0.075.
For GAAGGTGA the value was 0.071; for AGTTCAAC, 0.0774; for GAGTGTGC, 0.0774.
Turning to GCGCTGCA, the binding signal (normalized occupancy) turned out to be 0.0708.
For the sequence GGAATCTA, the binding signal (normalized occupancy) came to 0.0873.
With CCGCACTC, the binding signal (normalized occupancy) was 0.0756.
As for AGTCATCG, the figure is 0.0751.
As to AGATGGTC, the binding signal (normalized occupancy) was found to be 0.0826.
As for CCATTTGC, the figure is 0.0748; as for GAAATGCA, 0.0772.
As for AAGACGAT, the binding signal (normalized occupancy) stood at 0.0737.
As for AGCTCATA, the figure is 0.0703.
As for GGGCCGGA, the figure is 0.0677; as for GGTACGCA, 0.0798; as for AGGATTCA, 0.0762.
For ACCACACT the value was 0.0849.
As for GAGCTCAA, the binding signal (normalized occupancy) turned out to be 0.0656.
As for GCCAGCTA, the figure is 0.0716; as for ATGCCTTG, 0.0819; as for CGGCTGTA, 0.07.
As for GAGGGAAA, the figure is 0.0787.
As to CCCGTACA, the binding signal (normalized occupancy) was found to be 0.0792.
Take GAAATCTC: the binding signal (normalized occupancy) came to 0.074.
Turning to ACCGACTA, the binding signal (normalized occupancy) came out at 0.0676.
As for GCAGGACC, the figure is 0.0701; as for CGCTCGAG, 0.0757.
For the sequence CGTTGTTA, the binding signal (normalized occupancy) was 0.0763.
Consider ACTTTACC, for which the binding signal (normalized occupancy) was found to be 0.0744.
For AGTCGGAT the value was 0.0718; for AATCGATA, 0.0789.
As for GAGAGAGA, the figure is 0.074; as for CTCCTATC, 0.0801; as for AGGCTTAT, 0.0808.
As for AGAACCCC, the figure is 0.0776.
